According to patent US11834480B2 (priority 2020, dated 2023):

Molecular target: D-form of SARS-CoV-2 HR1 (SARS CoV-2 D-HR1-biotin) (Severe acute respiratory syndrome coronavirus 2, UniProt P0DTC2)
Assay type: binding

Row | Sequence | fold improvement in binding over SEQ ID NO:11
1 | ATVKFTYQGEEKQVDISKIKYVLRIGQAIWFRYDEGGGAIGNGWVSEEDAPKELLQMLEKR [SEQ ID NO:51] | 6.5 fold
2 | ATVKFTYQGEEKQVDISKIKYVLRIGQAIWFRYDEGGGAIGNGWVSEEDAPKELLQMLGKR [SEQ ID NO:53] | 8.8 fold
